# In article PMC4336329 (PLoS ONE, 2015):
# Hit rate of the full screen: of about 310,000 compounds, about 14,000 (4.5%) showed an effect of 50% or more. Effects have a minus sign here. The list shows a part of the results.
# Biological target: human ether-à-go-go-related gene (hERG) potassium channel (human, UniProt Q12809)
# Assay: primary screen, population patch clamp on CHO cells stably expressing hERG
# 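Further: peak tail current of the secondary pulse compared with the same well before compound.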
# Chain of human ether-à-go-go-related gene (hERG) potassium channel (Q12809 whole entry, looked up): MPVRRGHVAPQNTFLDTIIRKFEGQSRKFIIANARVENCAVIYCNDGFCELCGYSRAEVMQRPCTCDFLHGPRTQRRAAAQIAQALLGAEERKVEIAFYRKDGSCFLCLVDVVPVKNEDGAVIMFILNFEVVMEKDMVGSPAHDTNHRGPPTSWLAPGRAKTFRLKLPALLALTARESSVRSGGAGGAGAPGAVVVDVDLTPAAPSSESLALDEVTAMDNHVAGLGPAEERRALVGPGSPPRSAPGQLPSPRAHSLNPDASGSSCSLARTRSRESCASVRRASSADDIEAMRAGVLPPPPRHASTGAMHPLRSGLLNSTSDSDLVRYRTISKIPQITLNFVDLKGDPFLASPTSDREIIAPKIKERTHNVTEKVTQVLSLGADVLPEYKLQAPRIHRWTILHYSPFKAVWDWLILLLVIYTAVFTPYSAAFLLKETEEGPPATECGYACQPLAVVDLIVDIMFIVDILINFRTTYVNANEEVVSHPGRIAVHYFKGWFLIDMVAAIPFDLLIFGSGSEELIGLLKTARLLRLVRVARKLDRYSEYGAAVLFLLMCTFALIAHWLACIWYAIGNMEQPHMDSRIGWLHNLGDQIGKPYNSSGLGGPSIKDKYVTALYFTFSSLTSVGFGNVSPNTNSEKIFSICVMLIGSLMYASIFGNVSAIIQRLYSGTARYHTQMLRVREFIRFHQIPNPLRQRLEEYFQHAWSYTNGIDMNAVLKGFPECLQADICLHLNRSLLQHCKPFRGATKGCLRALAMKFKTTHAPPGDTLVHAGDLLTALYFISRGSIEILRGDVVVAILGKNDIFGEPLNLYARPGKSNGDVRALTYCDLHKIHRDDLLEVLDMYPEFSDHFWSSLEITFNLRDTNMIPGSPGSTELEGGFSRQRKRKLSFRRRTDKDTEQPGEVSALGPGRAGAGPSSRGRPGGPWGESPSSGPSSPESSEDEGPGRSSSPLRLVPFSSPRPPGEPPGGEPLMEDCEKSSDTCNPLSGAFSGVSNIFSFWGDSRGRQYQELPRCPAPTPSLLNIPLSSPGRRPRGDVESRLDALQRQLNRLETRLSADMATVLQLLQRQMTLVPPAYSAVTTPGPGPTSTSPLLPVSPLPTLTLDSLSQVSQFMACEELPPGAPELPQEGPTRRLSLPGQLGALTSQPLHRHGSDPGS
row,Structure (SMILES),"hERG current change (%, negative = inhibition) at 10uM [%]"
1,O=C(Cn1cnc2ccccc2c1=O)NCCC(=O)Nc1ccc2c(c1)OCCO2,4.96
2,Cc1ccc(OCC(=O)NCC(=O)n2nc(C)cc2C)cc1,-0.722
3,COc1ccc(/C=C(\C#N)C(=O)NCc2ccccc2)cc1O,-13.1
4,O=C(CCOc1ccccc1)Nc1ccnn1C1CCN(Cc2ccccc2)CC1,-50
5,COc1cc(OC)cc(-c2nnc(SCc3cccc(C(=O)O)c3)o2)c1,8.29
6,O=C(COc1ccc(F)cc1)N1c2ccccc2CCc2ccccc21,14.3
7,NC1=NC[C@H](c2ccccc2)N1CCCCC1CCCCC1,-24.1
8,COc1ccc(C(C(=O)NCC2CCCO2)N(C(=O)CNC(=O)c2ccco2)c2ccc(C)c(C)c2)cc1OC (centres unmarked),9.56
9,C=CCO/N=C(/CCC)C1=C(N)CC(C)(C)CC1=O,14.9
10,CN(c1ccc(OCC(=O)Nc2nc(-c3ccccc3)cs2)cc1)S(=O)(=O)c1ccc(F)cc1,-0.888
11,Cc1nc2ccccc2nc1N/N=C/c1ccc(O)cc1,12.2
12,CN(NS(=O)(=O)c1ccc(Cl)cc1)c1nc(C(F)(F)F)nc2ccccc12,22.2
13,O=C(NCCN1C(=O)C2C3C=CC(C3)C2C1=O)Nc1ccc(Br)cc1 (centres unmarked),-25
14,COc1cccc(OC)c1NC(=O)c1nc2c(nnn2Cc2ccccc2Cl)c(=O)[nH]1,-0.301
15,CCOC(=O)c1cnc2ncnn2c1N,14.7
16,CCC(C)c1ccc(OCC(=O)Nc2cccc(C(=O)Nc3ccc(C(=O)O)cc3)c2)cc1 (centres unmarked),-5.31
17,N#Cc1ccccc1Sc1ccccc1C(=O)Nc1ccc2ccccc2c1,15.8
18,COCCNC(=O)c1ccc(CS(=O)(=O)c2ccccc2)o1,-9.11
19,O=C(/C=C/c1cccc(F)c1)NNC(=O)c1ccncc1,-4.8
20,CCOC(=O)C1=C(N)n2c(s/c(=C\c3ccncc3)c2=O)=C(C(=O)OCC)C1c1ccncc1 (centres unmarked),22.8
21,Nc1c(C(=O)Nc2ccc3c(c2)OCCO3)nnn1Cc1ccc(Br)cc1,-4.24
22,CCC(C)NC(=O)c1ccc(C2SCC(=O)N2Cc2ccccc2)cc1 (centres unmarked),2.6

row,Structure (SMILES),"hERG current change (%, negative = inhibition) at 10uM [%]"
1,Cc1cc(C(=O)NCCc2ccc(S(N)(=O)=O)cc2)c(C)o1,2.08
2,CN1C(=O)CC(N2CCN(CC(=O)N3CCCC3)CC2)C1=O (centres unmarked),0.953
3,COc1ccc(C(C)=O)cc1CSc1nnc(SCc2cc(C(C)=O)ccc2OC)s1,13.6
4,CC(=O)Nc1ccc(NC(=O)CCn2cnnn2)cc1,18.1
5,COc1cc(CN(C)CC2CCCN(CCc3cccc(C(F)(F)F)c3)C2)ccc1O (centres unmarked),-62.8
6,Cc1nn(Cc2ccc(F)cc2)c(C)c1NC(=O)c1nn(C)cc1Cl,-3.31
7,Cc1nnc(SCc2cc(=O)[nH]c(Nc3nc(C)c4cc(C)c(C)cc4n3)n2)s1,13.7
8,CCOC(=O)c1c(NC(=O)CCN2C(=O)c3cccc([N+](=O)[O-])c3C2=O)sc(C(=O)OC(C)C)c1C,13.2
9,Cc1cc(=O)oc2ccc(OC(=O)CN3C(=O)c4cccc([N+](=O)[O-])c4C3=O)cc12,4.86
10,O=C(O)CCCc1ccc2c(c1)CCc1ccccc1-2,16.1
11,CC1CC(C)CN(c2ncnc3c2cnn3-c2ccc(Cl)cc2)C1 (centres unmarked),3.17
12,COc1cccc(CN2CC(C(=O)NCCc3ccc(C)o3)CCC2=O)c1 (centres unmarked),7.18
13,C=CCN1C(=O)/C(=C/c2cccs2)S/C1=N\S(=O)(=O)c1ccc(F)cc1,15.8
14,Cc1ccc(CNC(=O)CSCC(=O)O)cc1,21.6
15,COc1ccc(/C=C/C(=O)N(c2ccccn2)C2CCCCC2)cc1OC,-6.44
16,Cc1cc2c(c(N)n1)c(=O)oc1ccccc12,13.9
17,O=C(Nc1ccc([N+](=O)[O-])cc1)c1ccc(Cn2cc([N+](=O)[O-])cn2)cc1,-31.7
18,COc1cc2[nH]c(Cl)c([N+](=O)[O-])c2cc1OC,-4.97
19,O=c1cc[nH]c2cc(Cl)ccc12,4.34
20,COc1ccc(/C=C/C(=O)c2ccc(Cl)s2)cc1O,1.69
21,CC1=C(C#N)C(NC(=O)c2ccccc2Cl)(C(F)(F)F)C(=O)N1 (centres unmarked),-7.75
22,CC(C)C1Cc2c(sc3ncnc(NN)c23)CO1 (centres unmarked),11.7
